In publication PMC4617701:
These are yes or no findings as the source states them, for the method shown. For some of these results: In cells and extracts the contact can be indirect. Some results given as binding are weak or reduced against the parent protein; the word gives no strength. For some of these results: Sequences can lack the tags named with a protein.

By UniProt entry, the sequences of proteins in these tests, tags left out. Where a name states a change or a piece, a line headed by the entry shows the natural chain unless it says otherwise. Chains listed by the source or under a name are the forms on record and can include a tag or linker. Residues count along the entry.
UniProt Q9Y2I6: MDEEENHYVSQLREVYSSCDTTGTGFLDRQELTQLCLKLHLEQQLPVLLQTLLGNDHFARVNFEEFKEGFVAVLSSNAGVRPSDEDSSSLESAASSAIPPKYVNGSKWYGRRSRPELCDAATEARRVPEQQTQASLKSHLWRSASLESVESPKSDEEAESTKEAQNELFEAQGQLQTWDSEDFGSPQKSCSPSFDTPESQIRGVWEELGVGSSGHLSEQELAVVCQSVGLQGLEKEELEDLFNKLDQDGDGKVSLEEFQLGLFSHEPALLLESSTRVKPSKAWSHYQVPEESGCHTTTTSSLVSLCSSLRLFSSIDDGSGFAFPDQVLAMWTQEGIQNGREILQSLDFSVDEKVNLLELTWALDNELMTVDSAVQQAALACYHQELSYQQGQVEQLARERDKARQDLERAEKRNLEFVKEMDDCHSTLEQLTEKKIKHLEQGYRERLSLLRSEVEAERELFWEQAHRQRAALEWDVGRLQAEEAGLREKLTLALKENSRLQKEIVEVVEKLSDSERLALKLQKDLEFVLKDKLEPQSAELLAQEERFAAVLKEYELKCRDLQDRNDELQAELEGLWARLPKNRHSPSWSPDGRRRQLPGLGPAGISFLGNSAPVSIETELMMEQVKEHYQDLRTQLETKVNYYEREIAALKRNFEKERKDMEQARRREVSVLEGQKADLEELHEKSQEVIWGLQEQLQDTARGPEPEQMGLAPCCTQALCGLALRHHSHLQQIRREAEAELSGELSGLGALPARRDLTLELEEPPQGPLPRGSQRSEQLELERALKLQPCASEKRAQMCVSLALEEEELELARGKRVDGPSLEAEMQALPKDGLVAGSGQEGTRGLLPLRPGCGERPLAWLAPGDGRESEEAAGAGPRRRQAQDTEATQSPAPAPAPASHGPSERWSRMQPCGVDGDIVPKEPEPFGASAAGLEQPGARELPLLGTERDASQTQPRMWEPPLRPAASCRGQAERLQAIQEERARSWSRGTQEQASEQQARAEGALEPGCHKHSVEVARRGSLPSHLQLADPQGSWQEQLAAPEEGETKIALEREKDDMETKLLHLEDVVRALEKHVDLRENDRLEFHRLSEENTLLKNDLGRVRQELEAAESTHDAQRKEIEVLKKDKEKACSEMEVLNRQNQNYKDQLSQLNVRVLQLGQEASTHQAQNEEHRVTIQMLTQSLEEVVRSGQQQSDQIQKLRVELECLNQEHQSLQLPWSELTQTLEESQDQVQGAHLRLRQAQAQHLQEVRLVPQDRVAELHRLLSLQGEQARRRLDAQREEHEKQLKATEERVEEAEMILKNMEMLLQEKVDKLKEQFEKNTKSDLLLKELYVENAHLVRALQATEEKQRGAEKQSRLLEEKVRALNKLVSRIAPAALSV
Strep/FLAG-tagged (SF-TAP) NINL isoform B (Q9Y2I6-2, form named): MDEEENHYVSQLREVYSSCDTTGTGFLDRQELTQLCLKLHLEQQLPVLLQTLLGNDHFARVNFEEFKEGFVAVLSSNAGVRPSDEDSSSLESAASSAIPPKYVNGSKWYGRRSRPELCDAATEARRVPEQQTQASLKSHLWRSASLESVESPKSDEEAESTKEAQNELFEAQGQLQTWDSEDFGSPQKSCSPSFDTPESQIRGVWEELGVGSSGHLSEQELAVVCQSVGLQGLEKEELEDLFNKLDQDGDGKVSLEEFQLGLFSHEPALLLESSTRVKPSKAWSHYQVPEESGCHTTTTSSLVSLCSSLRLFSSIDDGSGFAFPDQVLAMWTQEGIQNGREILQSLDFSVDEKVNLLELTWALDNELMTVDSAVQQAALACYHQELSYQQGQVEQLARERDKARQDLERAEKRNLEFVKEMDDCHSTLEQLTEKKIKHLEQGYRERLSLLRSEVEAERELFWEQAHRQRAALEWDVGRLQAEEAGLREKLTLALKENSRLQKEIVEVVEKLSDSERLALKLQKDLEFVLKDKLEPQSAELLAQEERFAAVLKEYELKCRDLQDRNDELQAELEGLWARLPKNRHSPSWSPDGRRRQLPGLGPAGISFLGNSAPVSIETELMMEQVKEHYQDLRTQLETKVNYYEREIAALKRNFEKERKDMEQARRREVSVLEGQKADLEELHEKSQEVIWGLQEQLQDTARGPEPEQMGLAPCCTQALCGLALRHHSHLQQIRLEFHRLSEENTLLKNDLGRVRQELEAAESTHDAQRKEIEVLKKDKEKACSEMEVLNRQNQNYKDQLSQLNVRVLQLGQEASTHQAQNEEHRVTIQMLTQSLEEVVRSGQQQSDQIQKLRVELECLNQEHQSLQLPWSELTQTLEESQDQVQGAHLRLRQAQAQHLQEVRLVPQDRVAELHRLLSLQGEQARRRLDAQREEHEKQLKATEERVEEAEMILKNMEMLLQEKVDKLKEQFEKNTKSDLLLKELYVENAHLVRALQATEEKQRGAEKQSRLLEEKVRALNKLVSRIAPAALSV
UniProt Q9P2K1: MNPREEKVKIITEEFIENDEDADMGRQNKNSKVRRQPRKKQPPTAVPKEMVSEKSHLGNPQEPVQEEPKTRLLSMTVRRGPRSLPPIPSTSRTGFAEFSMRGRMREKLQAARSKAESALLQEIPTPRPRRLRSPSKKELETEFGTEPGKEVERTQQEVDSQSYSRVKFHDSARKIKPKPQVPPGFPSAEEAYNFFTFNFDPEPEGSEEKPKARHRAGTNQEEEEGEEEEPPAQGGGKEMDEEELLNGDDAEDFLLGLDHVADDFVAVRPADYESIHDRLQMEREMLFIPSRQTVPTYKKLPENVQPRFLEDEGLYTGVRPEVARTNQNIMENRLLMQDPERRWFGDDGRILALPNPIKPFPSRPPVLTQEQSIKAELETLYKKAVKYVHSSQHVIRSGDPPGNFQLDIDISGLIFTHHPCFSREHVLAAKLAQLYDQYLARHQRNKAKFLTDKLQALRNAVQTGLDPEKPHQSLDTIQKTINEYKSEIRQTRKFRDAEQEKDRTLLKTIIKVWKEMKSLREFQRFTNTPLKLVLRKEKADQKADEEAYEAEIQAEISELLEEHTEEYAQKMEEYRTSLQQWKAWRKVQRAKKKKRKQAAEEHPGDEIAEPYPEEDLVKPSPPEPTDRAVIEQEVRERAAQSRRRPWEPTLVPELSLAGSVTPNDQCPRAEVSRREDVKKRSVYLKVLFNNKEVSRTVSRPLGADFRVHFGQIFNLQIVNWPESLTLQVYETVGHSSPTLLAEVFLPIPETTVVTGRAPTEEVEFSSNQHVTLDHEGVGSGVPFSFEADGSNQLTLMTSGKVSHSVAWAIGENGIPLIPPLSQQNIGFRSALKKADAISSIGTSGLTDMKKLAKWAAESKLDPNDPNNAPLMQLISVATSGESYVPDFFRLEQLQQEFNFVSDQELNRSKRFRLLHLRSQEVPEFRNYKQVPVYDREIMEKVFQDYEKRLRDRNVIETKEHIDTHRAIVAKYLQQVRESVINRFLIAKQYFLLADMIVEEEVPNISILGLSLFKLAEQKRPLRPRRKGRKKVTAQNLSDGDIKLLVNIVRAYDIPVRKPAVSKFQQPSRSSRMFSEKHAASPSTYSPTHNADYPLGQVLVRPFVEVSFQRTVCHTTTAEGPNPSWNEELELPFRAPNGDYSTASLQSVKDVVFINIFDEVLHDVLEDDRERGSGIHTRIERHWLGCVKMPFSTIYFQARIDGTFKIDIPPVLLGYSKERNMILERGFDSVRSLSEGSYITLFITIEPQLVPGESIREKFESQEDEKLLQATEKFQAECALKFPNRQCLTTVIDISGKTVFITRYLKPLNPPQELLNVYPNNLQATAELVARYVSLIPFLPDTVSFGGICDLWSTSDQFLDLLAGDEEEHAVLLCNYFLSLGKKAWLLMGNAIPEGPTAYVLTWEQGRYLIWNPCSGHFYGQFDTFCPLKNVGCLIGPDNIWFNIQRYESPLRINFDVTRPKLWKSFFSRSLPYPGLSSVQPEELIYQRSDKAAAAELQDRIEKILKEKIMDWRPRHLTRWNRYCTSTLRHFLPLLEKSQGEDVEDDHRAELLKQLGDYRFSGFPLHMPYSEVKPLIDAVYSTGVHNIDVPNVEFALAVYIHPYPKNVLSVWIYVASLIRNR
CC2D2A aa 433-637 (coiled-coil domains 1 and 2) fused to the GAL4 DNA binding domain: residues 433-637 of Q9P2K1
UniProt Q7RTP6: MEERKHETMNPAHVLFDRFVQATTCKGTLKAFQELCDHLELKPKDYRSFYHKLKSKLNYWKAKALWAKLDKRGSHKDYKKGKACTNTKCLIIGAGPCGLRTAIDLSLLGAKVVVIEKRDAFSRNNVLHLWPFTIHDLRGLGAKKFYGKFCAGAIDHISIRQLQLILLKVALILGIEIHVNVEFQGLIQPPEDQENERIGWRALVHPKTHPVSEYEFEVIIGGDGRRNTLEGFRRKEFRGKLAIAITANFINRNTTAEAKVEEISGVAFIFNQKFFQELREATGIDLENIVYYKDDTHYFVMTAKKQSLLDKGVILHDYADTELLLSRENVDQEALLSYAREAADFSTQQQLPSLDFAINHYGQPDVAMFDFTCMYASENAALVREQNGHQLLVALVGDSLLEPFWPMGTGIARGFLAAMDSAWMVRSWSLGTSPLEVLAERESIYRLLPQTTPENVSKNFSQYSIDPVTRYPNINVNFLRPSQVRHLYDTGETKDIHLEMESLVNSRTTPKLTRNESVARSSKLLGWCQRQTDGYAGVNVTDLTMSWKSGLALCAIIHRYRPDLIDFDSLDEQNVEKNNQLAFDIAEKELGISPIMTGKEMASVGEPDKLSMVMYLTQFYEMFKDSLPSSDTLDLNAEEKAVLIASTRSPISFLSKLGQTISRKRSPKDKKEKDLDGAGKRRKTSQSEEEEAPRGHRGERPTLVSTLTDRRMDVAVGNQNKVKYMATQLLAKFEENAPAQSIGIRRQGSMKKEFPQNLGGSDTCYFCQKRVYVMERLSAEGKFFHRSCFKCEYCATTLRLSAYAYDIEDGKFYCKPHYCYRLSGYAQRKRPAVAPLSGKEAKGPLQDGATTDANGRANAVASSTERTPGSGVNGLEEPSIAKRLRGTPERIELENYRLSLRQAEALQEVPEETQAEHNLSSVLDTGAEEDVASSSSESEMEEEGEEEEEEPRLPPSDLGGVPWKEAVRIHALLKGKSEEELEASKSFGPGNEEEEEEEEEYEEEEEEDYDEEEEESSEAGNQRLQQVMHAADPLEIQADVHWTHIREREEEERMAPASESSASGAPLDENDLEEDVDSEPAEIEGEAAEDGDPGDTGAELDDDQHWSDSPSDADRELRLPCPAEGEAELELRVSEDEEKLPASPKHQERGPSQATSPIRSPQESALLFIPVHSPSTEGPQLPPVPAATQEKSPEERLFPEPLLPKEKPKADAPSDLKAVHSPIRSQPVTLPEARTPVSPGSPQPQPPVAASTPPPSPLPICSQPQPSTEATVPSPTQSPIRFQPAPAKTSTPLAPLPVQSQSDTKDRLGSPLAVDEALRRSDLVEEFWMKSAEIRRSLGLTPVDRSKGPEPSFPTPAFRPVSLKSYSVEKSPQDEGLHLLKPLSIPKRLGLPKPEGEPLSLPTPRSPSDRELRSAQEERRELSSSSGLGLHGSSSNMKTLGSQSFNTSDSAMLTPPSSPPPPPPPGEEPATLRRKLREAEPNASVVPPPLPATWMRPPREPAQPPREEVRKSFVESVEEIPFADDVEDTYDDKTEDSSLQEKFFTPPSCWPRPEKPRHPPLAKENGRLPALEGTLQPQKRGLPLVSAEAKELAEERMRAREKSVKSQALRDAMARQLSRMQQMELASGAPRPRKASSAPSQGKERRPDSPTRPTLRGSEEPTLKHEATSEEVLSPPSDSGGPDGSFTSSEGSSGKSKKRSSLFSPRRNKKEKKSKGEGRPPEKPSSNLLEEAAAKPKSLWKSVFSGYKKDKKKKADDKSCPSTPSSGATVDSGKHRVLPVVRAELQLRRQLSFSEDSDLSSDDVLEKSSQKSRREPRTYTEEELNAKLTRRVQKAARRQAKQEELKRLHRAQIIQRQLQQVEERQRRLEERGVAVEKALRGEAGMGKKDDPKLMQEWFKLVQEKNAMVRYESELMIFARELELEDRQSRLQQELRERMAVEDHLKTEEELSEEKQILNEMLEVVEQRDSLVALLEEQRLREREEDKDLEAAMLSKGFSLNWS

How the values were obtained:
[1] = biological target: HA-tagged NINL isoform B (human) (UniProt Q9Y2I6); assay: co-IP; HEK293T co-transfected; lysis in 50 mM Tris-HCl pH 7.5, 150 mM NaCl, 1% Triton-X-100; HA-tagged NINL isoform B precipitated overnight at 4°C with rat monoclonal anti-HA beads; immunoblot
[2] = biological target: FLAG-tagged CC2D2A (Coiled-coil and C2-domains containing protein 2A) (human) (UniProt Q9P2K1); assay: co-IP; HEK293T co-transfected; lysis in 50 mM Tris-HCl pH 7.5, 150 mM NaCl, 1% Triton-X-100; FLAG-tagged proteins precipitated with anti-FLAG M2 agarose beads; immunoblot
FLAG-tagged LRRK2 = FLAG-tagged LRRK2 (UniProt Q5S007); assay: as above
[3] = biological target: CC2D2A aa 433-637 (coiled-coil domains 1 and 2) fused to the GAL4 DNA binding domain (human) (UniProt Q9P2K1); assay: two-hybrid; GAL4-based yeast two-hybrid (Hybrizap), strain PJ69-4A; CC2D2A fused to GAL4-BD as bait, NINL fused to GAL4-AD as prey; growth on media deficient of histidine and adenine, alpha- and beta-galactosidase reactions
[4] = biological target: eGFP-tagged MICAL3 (Microtubule-associated Monooxygenase, Calponin and LIM domain containing 3 protein) (UniProt Q7RTP6); assay: co-IP; HEK293T co-transfected; lysis in 50 mM Tris-HCl pH 7.5, 150 mM NaCl, 1% Triton-X-100; eGFP-tagged MICAL3 (or eGFP) precipitated with anti-GFP polyclonal antibodies coupled to ProtA/G beads; immunoblot
[5] = biological target: Strep/FLAG-tagged (SF-TAP) NINL isoform B (human) (UniProt Q9Y2I6); assay: co-IP; HEK293T co-transfected; lysis in 50 mM Tris-HCl pH 7.5, 150 mM NaCl, 1% Triton-X-100; FLAG-tagged proteins precipitated with anti-FLAG M2 agarose beads; immunoblot
FLAG-tagged STRAD = biological target: T1, FLAG-tagged STRAD (UniProt Q7RTN6); assay: as above
T1 sequence: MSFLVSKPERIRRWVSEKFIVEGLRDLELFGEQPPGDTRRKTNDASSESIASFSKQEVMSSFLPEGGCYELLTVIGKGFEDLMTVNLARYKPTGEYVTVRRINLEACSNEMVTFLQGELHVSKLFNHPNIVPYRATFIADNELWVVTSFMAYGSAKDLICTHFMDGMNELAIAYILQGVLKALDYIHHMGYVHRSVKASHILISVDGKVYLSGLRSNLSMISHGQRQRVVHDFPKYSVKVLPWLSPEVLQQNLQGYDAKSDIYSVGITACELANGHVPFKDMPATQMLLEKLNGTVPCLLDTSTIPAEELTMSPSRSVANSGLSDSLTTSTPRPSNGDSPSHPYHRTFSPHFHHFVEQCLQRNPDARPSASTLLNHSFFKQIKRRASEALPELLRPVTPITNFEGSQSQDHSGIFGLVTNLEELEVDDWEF

“FLAG-tagged CC2D2A (Coiled-coil and C2-domains containing protein 2A) (from UniProt Q9P2K1-4 1-1620)” was tested. Which binding [1] did it give?
The binding was “binds”.

Which binding [1] does the source give for “FLAG-tagged LRRK2 (from UniProt Q5S007 1-2527)” here?
Its binding is “no binding”.

How did the binding [2] turn out when “HA-tagged NINL isoform B (from UniProt Q9Y2I6-2 1-1033)” was run?
Its binding is “binds”.

What about the binding (FLAG-tagged LRRK2) of the same molecule?
The binding was “no binding”.

For “NINL (Ninein-like protein) isoform A fused to the GAL4 activation domain (from UniProt Q9Y2I6 1-1382)”, which binding [3] is on record?
The binding was “binds”.

Which binding [3] does the source give for “NINL (Ninein-like protein) isoform B fused to the GAL4 activation domain (from UniProt Q9Y2I6-2 1-1033)” here?
Its binding is “binds”.

With “Strep/FLAG-tagged (SF-TAP) NINL isoform B (from UniProt Q9Y2I6-2 1-1033)” as the molecule, how does the binding [4] read?
The binding was “binds”.

For “eGFP-tagged MICAL3 (Microtubule-associated Monooxygenase, Calponin and LIM domain containing 3 protein) (from UniProt Q7RTP6 1-2002)”, which binding [5] is on record?
The binding was “binds”.

What about the binding (FLAG-tagged STRAD) of the same molecule?
Its binding is “no binding”.

B1: FLAG-tagged STRAD (protein, UniProt Q7RTN6 1-431)
chain: T1 sequence
B1 was tested. Which binding [4] did it give?
Its binding is “no binding”.
